# Measured values published in PubChem BioAssay AID686978 (National Center for Advancing Translational Sciences (NCATS), 2013).
# Where “and” joins values, the source holds several entries; their conditions need not be identical. Equal entries are not always repeated. Hit rate of the full screen: of about 420,000 compounds, about 64,000 (15%) were called active. Inconclusive results, whose numbers are uncertain, are shown with a selection of clear calls. Calls follow the shape of the dose curve; as a rule, active = well fitted inhibition curve with a large enough effect; inconclusive = small, poorly fitted or top-dose-only effect; inactive = flat fitted curve, though single readings scatter. Potencies of inconclusive entries are left out as doubtful fits.
# Test: qHTS for Inhibitors of human tyrosyl-DNA phosphodiesterase 1 (TDP1): qHTS in cells in absence of CPT; also: nearly all actives have a fitted effect of over 55% in size
# Settings: DT40 Tdp1-/- hTDP1 cells, no CPT, ATP luminescence, 48 h; activity change, negative = growth inhibition: at 46.2 µM (top of the series)
# In short: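 Growth kinetics read by CellTiter-Glo luminescence after ≥48 hr at 37 °C. Cells: DT40 Tdp1-/- stably carrying human TDP1, 400 per well, compound exposure in the absence of CPT (DMSO vehicle).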
# % is scaled to controls: 0 for no effect and ±100 for the full control effect; potency is read from the fitted curve at half-maximal effect; tags tell the direction and shape of the fitted curve.
Compound,Potency,"activity change, negative = growth inhibition"
Cn1c(=O)c2c(-c3ccccc3)n(-c3ccccc3Br)cc2n(C)c1=O,active: 5.17 µM,–
Cc1ccccc1-c1ccc2ncnc(-n3ccnc3)c2c1,active: 20.6 µM,–
COc1cccc(-n2c(=O)c3c(C)c(C)sc3n(Cc3ccccc3C#N)c2=O)c1,inactive,–
Brc1c(CSc2nncc3ccccc23)nc2ccccn12,"inconclusive [inhibitor, partial curve]",–
COc1ccc(CCN2C(=O)CS/C2=N\NC(=O)c2ccc(C(C)(C)C)cc2)cc1OC,active: 14.6 µM,–
COc1ccc(OC)c(NC(=O)CCN2CCN(C/C=C/c3ccccc3)CC2)c1,"inconclusive [inhibitor, single point]",–
NS(=O)(=O)c1cccc(NC(=O)CSc2nnc(-c3ccccc3)o2)c1,inactive,–
COCCn1c(SCC(=O)Nc2ccccc2)nc2c(oc3ccccc32)c1=O,"inconclusive [inhibitor, full curve]",–
CNCC(=O)Nc1ccc(Cl)c(C(F)(F)F)c1,–,inconclusive: -30.5% [inhibitor]
CCc1ccccc1NC(=O)Nc1cccn(Cc2ccc(F)cc2)c1=O,"inconclusive [inhibitor, single point]",–
O=[N+]([O-])c1nn(-c2ccccc2)n(O)c1=NCCc1ccccc1,active: 14.6 µM,–
CCOc1ccc(/C=N/NC(=O)c2nnn(-c3nonc3N)c2CN2CCC(C)CC2)cc1,"inconclusive [inhibitor, single point]",–
COC(=O)[C@@]1(C)CCC[C@@]2(C)c3ccc(O)c(C(C)C)c3CCC21 (stereo not given in full),active: 10.3 µM,–
O=C(CN1C(=O)COc2ccccc21)NCCCN1CCCCC1,inactive,–
CCOC(=O)c1sc(C)c2c1NC1(CCCCC1)NC2=O,"inconclusive [inhibitor, single point]",–
CCCCCSc1nnc2c(n1)OC(c1cccn1C)N(C(C)=O)c1ccccc1-2 (stereo not given),inactive,–
COc1ccc(-c2nc3sc(CCNC(=O)C(=O)Nc4ccccc4C#N)c(C)n3n2)cc1,inactive,–
COc1cccc(OC)c1C(=O)OCC(=O)Nc1ccc(OC(F)(F)F)cc1,"inconclusive [inhibitor, single point]",–
COc1ccc(/C=C/C(=O)Nc2ccc(-n3nncc3-c3ccccc3)cc2)cc1OC,active: 8.2 µM,–
Cc1ccc(-n2c(-c3ccccc3)c[n+]3c2CCC3)cc1,active: 0.651 µM,–
S=C1NC2(CCCCC2)NN1c1ccccc1,"inconclusive [inhibitor, single point]",–
COC(=O)C1CCN(C(=O)COC(=O)c2ccc(OC)c(S(=O)(=O)N3CCCc4ccccc43)c2)CC1,active: 0.411 µM,–
COc1ccc(OC)c(Nc2ncnc3sccc23)c1,–,inconclusive: -32.2% [inhibitor]
CCOc1ccc(CNC(=O)c2cc3ccccn3n2)cc1,inactive,–
CCC1C/C(=C/c2cccs2)C(=O)/C(=C/c2cccs2)C1 (stereo not given),"inconclusive [inhibitor, single point]",–

Compound,Potency,"activity change, negative = growth inhibition"
O=C(O)C12C3CCC(O3)C1(C(=O)O)C1CCC2O1 (stereo not given),inactive,–
O=C(NCCc1ccccc1)C(=O)NC1CCCCC1,inactive,–
COCCCNC(=O)c1ccc(Cn2c(=O)c3ccccc3n(Cc3ccc(Cl)cc3)c2=O)cc1,"inconclusive [inhibitor, partial curve, poor fit]",–
O=c1cc(/C=C/c2cccs2)[nH]c2ccccc12,active: 2.06 µM,–
CCN1CCN(C(=O)c2cc(COc3ccc4ncccc4c3)on2)CC1,active: 10.3 µM,–
CC1CC(C)C(=NNC(N)=O)C(C(O)CC2CCC(=O)NC2=O)C1 (stereo not given),active: 2.31 µM,–
O=C(OCCc1ccccc1)c1cc(O)c(O)c(O)c1,active: 23.1 µM,–
COC(=O)c1c(-c2ccc(OC)cc2)sc2ccc(OC)cc12,"inconclusive [inhibitor, single point]",–
CN(C)C(=O)COC(=O)c1cccc(S(=O)(=O)N2CC3(C)CC2CC(C)(C)C3)c1 (stereo not given),"inconclusive [inhibitor, single point]",–
COC(=O)Oc1ccc(/C=N/NC(=O)CN(c2ccccc2Cl)S(C)(=O)=O)cc1OC,–,inconclusive: -32.1% [inhibitor]
Cc1ccc(C)c(N2CCN(S(=O)(=O)c3ccc(-c4cc(C)no4)s3)CC2)c1,"inconclusive [inhibitor, single point]",–
Cc1sc2nc(CN3CCOCC3)nc(NS(=O)(=O)c3ccccc3)c2c1C,inactive,–
C=C[C@@H]1c2cc(C)ccc2N(S(=O)(=O)c2ccc(C)cc2)[C@H](c2ccc(OC(C)=O)cc2)C1(C#N)C#N,active: 11.2 µM and active: 5.8 µM,–
c1ccc(-c2cccc(-c3ccccn3)n2)nc1,active: 3.66 µM,–
O=C(NCc1ccc(F)cc1F)[C@@H]1CCCN1C(=O)[C@@H]1CCCN1C(=O)c1cccs1,inactive,–
O=C(Nc1c(Cl)cccc1Cl)C1CCN(C(=O)c2cccs2)CC1,inactive,–
Cc1ccc(C(=O)N(Cc2ccco2)c2ccccn2)cc1,"inconclusive [inhibitor, single point]",–
CC(C)c1cc(C(=O)OCC(=O)NC2CCS(=O)(=O)C2)c(O)c(C(C)C)c1 (stereo not given),"inconclusive [inhibitor, single point]",–
COc1ccc2[nH]cc(CCNC(=O)C3CC3)c2c1,inactive,–
Cc1ccc(C)c(OCCC(=O)Nc2ccc(S(=O)(=O)N3CCCC3)cc2)c1,"inconclusive [inhibitor, partial curve]",–
Nc1c(C(=O)OCC2CCCO2)c2nc3ccccc3nc2n1C1CCCC1 (stereo not given),active: 11.6 µM,–
CC(C)c1cccc(OCCN2CCCC2)c1,inactive,–
COc1ccc(CC(=O)NCC(c2cccs2)S(=O)(=O)c2ccc(F)cc2)cc1 (stereo not given),"inconclusive [inhibitor, single point]",–
Cc1ccc(CNC(=O)c2c(Nc3ccccc3C)sc(C(=O)c3ccc(F)cc3)c2N)cc1,active: 14.6 µM,–
CC(C)[C@H](NC(=O)[C@@H]1Cc2ccccc2CN1C(=O)OC(C)(C)C)C(=O)NC1CCCC1,inactive,–
